The whole screen tested about 310,000 compounds, of which about 18,000 (5.8%) were called active. The shares of active, inactive and inconclusive entries below differ from those in the screen. The call rests on the fitted dose curve; in most records, active means well fitted inhibition curve with a large enough effect; inconclusive means small, poorly fitted or top-dose-only effect, or another doubt; inactive means no such curve, though single readings can be large or run the other way. No potency is given beside an inconclusive call; the fits are too rough.
Assay: Primary qHTS for delayed death inhibitors of the malarial parasite plastid, 48 hour incubation
Conditions: P. falciparum luciferase growth in erythrocytes; series mostly up to 28.7 µM
Method in brief: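 First compound was added to culture medium, then infected red cells at 0.1% parasitemia and 2% hematocrit (final). After incubation at 37 C under 5% CO2, luciferase detection reagent was dispensed and light output recorded.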
Potency means the concentration at half of the fitted maximal effect; tags describe the fitted curve by direction and shape.

Row | Compound | Potency
1 | Cc1nn(C)cc1S(=O)(=O)Nc1ccc(C(F)(F)F)cc1 | inactive
2 | Cc1nn(Cc2ccccc2)c2ncccc12 | inconclusive [inhibitor, partial curve, poor fit]
3 | CC(C)COC(=O)C1C2C=CC3(CN(C4CCCC4)C(=O)C13)O2 (centres undefined) | inactive
4 | Cc1ccccc1NS(=O)(=O)c1csc(C(N)=O)c1 | inconclusive [inhibitor, partial curve]
5 | O=C1NC(=O)/C(=C\c2ccsc2)N1 | inactive
6 | Cc1ccc(NC(=S)N(Cc2cccs2)Cc2cc3cccc(C)c3[nH]c2=O)cc1 | inactive
7 | COc1cccc(CNC(=O)C2CCCN2S(=O)(=O)c2ccc3c(c2)C(C)(C)C(=O)N3C)c1 (centres undefined) | inconclusive [inhibitor, full curve, poor fit]
8 | CCCN(C(=O)CSCc1ccccc1C)c1c(N)n(Cc2ccccc2)c(=O)[nH]c1=O | inconclusive [inhibitor, partial curve]
9 | O=C(COC(=O)c1cc(S(=O)(=O)N2CCCCC2)ccc1N1CCOCC1)NC1CCS(=O)(=O)C1 (centres undefined) | inconclusive [inhibitor, full curve, poor fit]
10 | COc1ccc(NC(=O)CSc2ccc3nnc(-c4ccccn4)n3n2)c(OC)c1 | inconclusive [inhibitor, partial curve]
11 | O=C1c2ccccc2C(=O)N1CCOCCN1C(=O)c2ccccc2C1=O | inactive
12 | c1ccc(CCc2nn3c(Cc4ccccc4)nnc3s2)cc1 | inconclusive [inhibitor, partial curve, poor fit]
13 | O=C(NCCN1CCOCC1)c1cc2sccc2n1Cc1ccc(F)cc1 | inconclusive [inhibitor, single point]
14 | Cc1cc(C)n2cc(CSc3nncn3C)nc2n1 | inactive
15 | CCOC(=O)C1CCN(C(=O)c2cc(OCC)c(OCC)c(OCC)c2)CC1 | inactive
16 | Cc1cc(NC(=O)COC(=O)C(Nc2ccc(C(F)(F)F)cc2Cl)C(C)C)no1 (centres undefined) | inconclusive [inhibitor, single point]
17 | C=CCOC(=O)C1=C(C)OC(N)=C(C#N)C1c1ccc2c(c1)OCO2 (centres undefined) | inactive
18 | O=S(=O)(c1ccc(F)cc1)N1CCCC1c1cccnc1 (centres undefined) | inconclusive [inhibitor, full curve]
19 | CC(=O)Oc1c(C)c2c3c(c1OC(C)=O)[C@@H](C)CC[C@@H]3[C@@H](C)C[C@H]2C=C(C)C | active: 11.7 µM
20 | CC(C)Oc1ccc(C2C(C#N)=C(N)Oc3c2oc(CO)cc3=O)cc1 (centres undefined) | inactive
21 | COc1ccc(OCC(O)CNS(=O)(=O)c2cccc(Cl)c2)cc1 (centres undefined) | inactive
22 | COc1ccccc1CNC(=O)CCS(=O)(=O)c1ccc2c(c1)CCN2C(C)=O | inconclusive [inhibitor, single point]
23 | Cc1ccc(CNC(=O)COc2ccc(C(=O)c3ccc(F)cc3)cc2)cc1 | inactive
24 | Cc1cc(C)c(C(=O)N2CCCC(N3CCN(c4cccc(C(F)(F)F)c4)CC3)C2)o1 (centres undefined) | inconclusive [inhibitor, partial curve]
25 | CN1CCC(N(C)C(=O)CCc2nc3ccccc3c(=O)[nH]2)CC1 | inactive

Row | Compound | Potency
26 | Cc1cccc2c1N(C(=O)c1ccco1)C(C)(C)c1ssc(=S)c1-2 | inconclusive [inhibitor, partial curve]
27 | COc1ccc2cc3c(N)nn(C(=O)c4ccccc4[N+](=O)[O-])c3nc2c1 | inconclusive [inhibitor, single point]
28 | Cc1ccc2c(c1)c1c(n2CC(O)Cn2c(C)nc3ccccc32)/C(=N\O)CCC1 (centres undefined) | active: 11.7 µM
29 | O=C(Cc1cccc2ccccc12)Nc1ccc(-c2cc3ccccc3oc2=O)cc1 | active: 11.7 µM
30 | CCOC(=O)C1=C(COc2ccccc2)NC(=O)NC1c1cccc([N+](=O)[O-])c1 (centres undefined) | inactive
31 | CC(=O)Nc1cccc(OCC(=O)Nc2cccc(S(=O)(=O)N3CCCC3)c2)c1 | inconclusive [inhibitor, partial curve]
32 | Cc1nc(SCC(=O)c2c[nH]c3ccccc23)n[nH]1 | inactive
33 | CCCNC(=O)c1ccc(N2CC3CC(C2)c2cccc(=O)n2C3)c(NC(=O)Nc2ccc(CC)cc2)c1 (centres undefined) | inconclusive [inhibitor, partial curve]
34 | CC(OC(=O)c1ccccc1NCCO)C(=O)NC1CCCCC1C (centres undefined) | inconclusive [inhibitor, single point]
35 | CC1CCN(S(=O)(=O)c2cccc(C(=O)N3CCN(c4ccc(F)cc4)CC3)c2)CC1 | inconclusive [inhibitor, full curve, poor fit]
36 | CCS(=O)(=O)NCCc1cc2c(OC)ccc(OC)c2[nH]c1=O | inactive
37 | Brc1ccc2ncnc(NCc3ccccc3)c2c1 | inconclusive [inhibitor, single point]
38 | COc1cccc(CN(C)C(=O)c2cc(-c3ccc(F)cc3)nc3ccccc23)c1 | inconclusive [inhibitor, single point]
39 | CC1CC(C)CN(C(=O)COC(=O)c2cc(S(=O)(=O)N3CCOCC3)ccc2F)C1 (centres undefined) | inconclusive [inhibitor, single point]
40 | COc1ccc(N2CC(C(=O)Nc3nnc(Cc4ccccc4)s3)CC2=O)cc1 (centres undefined) | inactive
41 | CCn1c2ccccc2c2cc(/C=N/NC(=O)c3cccc(C)c3)ccc21 | inconclusive [inhibitor, full curve, poor fit]
42 | COc1ccc(C(=O)N/C(=C/c2ccc(Cl)cc2)C(=O)NCc2ccncc2)cc1 | inconclusive [inhibitor, partial curve]
43 | Cc1ccccc1C(=O)N1CCC(C(=O)Nc2cccc(S(=O)(=O)N3CCCCC3)c2)CC1 | active: 14.7 µM
44 | Cc1nn(-c2ccccc2)c(C)c1NC(=O)COC(=O)c1ccc(O)cc1O | inactive
45 | CC(C)COC(=O)n1c(=O)oc2cc(S(=O)(=O)N3CCCCC3)ccc21 | active: 8.28 µM
46 | CCCc1ccc(OCC(=O)NNC(=S)NC(=O)c2ccco2)cc1 | inconclusive [inhibitor, single point]
47 | COc1ccc(-n2nc3c(c2NC(=O)CCCCl)CSC3)cc1 | inconclusive [inhibitor, single point]
48 | COc1ccc(-c2cc(C(=O)O)nc3ccc4ccccc4c23)cc1OC | inactive
49 | C(=N\Nc1nc(-c2ccccc2)cs1)/c1cccnc1 | inconclusive [inhibitor, partial curve]
50 | O=C(c1cc2nc(C3CC3)cc(C(F)F)n2n1)N1CCOCC1 | inactive

Row | Compound | Potency
51 | N#Cc1c(N(CCO)CCO)nc(N)c2c(N)nc3c(c12)CC(=O)N3CC1CCCO1 (centres undefined) | inactive
52 | COc1ccc(-n2c(=O)cc(N3CCOCC3)[nH]c2=O)cc1 | inconclusive [inhibitor, partial curve, poor fit]
53 | O=C(/C=C/c1ccco1)N1CCN(c2ccc(F)cc2)CC1 | inconclusive [inhibitor, partial curve]
54 | CC(=O)c1c(C)[nH]c(C(=O)CSc2nnc(N)s2)c1C | inactive
55 | COC(=O)NNC(=O)/C=C/c1ccccc1 | inactive
56 | Nc1c(Cl)cc(-c2csc(NCCc3nc4cc(Cl)c(Cl)cc4n3CCCO)n2)cc1Cl | inconclusive [inhibitor, single point]
57 | O=C(COc1ccc(Cl)cc1)Nc1cc(S(=O)(=O)N2CCCCC2)ccc1N1CCCCC1 | active: 11.7 µM
58 | Cc1cccc(N=C2NC(=O)/C(=C/c3cn(C)c4ccccc34)S2)c1 | inconclusive [inhibitor, partial curve]
59 | O=C(NCC(c1ccco1)N1CCc2ccccc21)c1cccc([N+](=O)[O-])c1 (centres undefined) | inconclusive [inhibitor, single point]
60 | CC1CC(C)CN(CC(O)COc2ccc3c(c2)CCC3)C1 (centres undefined) | inconclusive [inhibitor, single point]
61 | CC1(c2ccccc2)NC(=O)N(CC(=O)Nc2cc3c(cc2Br)OCCO3)C1=O (centres undefined) | inconclusive [inhibitor, single point]
62 | C=CCn1c(-c2ccc(OC)cc2)nc2ccccc21 | inactive
63 | Cc1cc(NC(=O)CCC(=O)N(C2CC2)C2(C(=O)NC3CCCC3)CCC(C)CC2)no1 (centres undefined) | inconclusive [inhibitor, single point]
64 | CC1(C)CC(=O)C2=C(C1)c1c(ccc3ccccc13)NC2c1ccc(OCC(=O)O)cc1 (centres undefined) | active: 10.4 µM
65 | Cc1cc(C(=O)CCC(=O)N2CCN(c3ccccc3)CC2)c(C)s1 | inactive
66 | Cc1ccc(S(=O)(=O)N2CCN(CCC#N)CC2)cc1 | inactive
67 | COc1ccc(CNC(=S)Nc2ccccc2)cc1 | inconclusive [inhibitor, full curve]
68 | COc1ccc2nc(NC(=O)CSc3nc(C)cc(=O)[nH]3)sc2c1 | inactive
69 | Cc1cc(NC2CCCCC2)nc2ccccc12 | inconclusive [inhibitor, partial curve]
70 | O=C(N/N=C/c1cc(Br)ccc1OC(=O)c1ccc(Br)cc1)c1ccncc1 | active: 1.65 µM
71 | Cc1ccc(-c2nn(-c3ccccc3)cc2CO)o1 | inactive
72 | Cn1c(N)c(C(=O)COC(=O)c2ncc(Cl)c(Cl)c2Cl)c(=O)n(C)c1=O | inactive
73 | COc1cc2c(cc1C1C(C#N)=C(N)OC3=C1C(=O)CC(C)(C)C3)OCO2 (centres undefined) | inconclusive [inhibitor, single point]
74 | CCOC(=O)c1cnc(-n2nc(C)cc2C)nc1-n1nc(C)cc1C | inactive
